# According to PubChem BioAssay AID588453 (National Center for Advancing Translational Sciences (NCATS), 2011):
# The campaign covered roughly 390,000 compounds. About 4,000 (1%) were called active. Inconclusive means that the source gave no clear call. Such entries were picked first, then a sample of the others. Calls follow the shape of the dose curve; as a rule, active = well fitted inhibition curve with a large enough effect; inconclusive = small, poorly fitted or top-dose-only effect; inactive = no such curve, though single readings can be large or run the other way. Where the call is inconclusive, the potency comes from a doubtful curve fit.
# Molecular target: Thioredoxin reductase 1, cytoplasmic (Rattus norvegicus) (UniProt O89049)
# Experiment: qHTS Assay for Inhibitors of Mammalian Selenoprotein Thioredoxin Reductase 1 (TrxR1): qHTS; also: nearly all actives have a fitted effect of over 65% in size
# Settings: recombinant rTrxR1, NADPH fluorescence consumption, selenite substrate; series mostly up to 114 µM; activity change, negative = inhibition: at the top concentration
# Method in brief: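 Rat TrxR1 (90 nM in the dispensed reagent) was pre-reduced with 400 uM NADPH for 5 min at room temperature, then incubated with compound for 15 min. After 400 uM selenite was added, NADPH fluorescence (Ex 340/Em 450 nm) was followed for 8 min.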
# % is scaled to controls: 0 for no effect and ±100 for the full control effect; potency is read from the fitted curve at half-maximal effect; tags tell the direction and shape of the fitted curve.
# Chain of UniProt O89049 (O89049 whole entry, looked up): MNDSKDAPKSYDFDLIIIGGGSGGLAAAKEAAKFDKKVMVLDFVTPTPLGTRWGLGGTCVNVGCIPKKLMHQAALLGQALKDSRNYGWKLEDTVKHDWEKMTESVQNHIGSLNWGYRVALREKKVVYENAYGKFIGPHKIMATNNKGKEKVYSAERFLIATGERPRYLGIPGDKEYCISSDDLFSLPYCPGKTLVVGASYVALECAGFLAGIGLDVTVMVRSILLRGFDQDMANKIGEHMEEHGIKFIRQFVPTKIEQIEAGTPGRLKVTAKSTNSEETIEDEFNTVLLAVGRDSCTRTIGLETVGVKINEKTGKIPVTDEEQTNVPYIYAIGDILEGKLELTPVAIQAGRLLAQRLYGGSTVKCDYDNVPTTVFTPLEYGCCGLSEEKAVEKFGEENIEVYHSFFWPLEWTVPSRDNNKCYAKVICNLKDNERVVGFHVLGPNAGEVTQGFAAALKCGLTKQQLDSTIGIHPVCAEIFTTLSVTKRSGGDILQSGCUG
Structure (SMILES),Potency,"activity change, negative = inhibition"
Cc1ccc(-n2nc(C)c3c2OC(N)=C(C#N)C3c2ccco2)cc1 (centres undefined),"inconclusive: 39.8 µM [inhibitor, partial curve]",
CCOC(=O)/C=C/C(=O)OCC(=O)Nc1ccc(C)cc1,active: 39.8 µM,
CCN(Cc1nc2cc(Cl)ccc2c(=O)[nH]1)C(=O)c1ccc(C)c(NC(=O)c2ccco2)c1,"inconclusive: 50.1 µM [inhibitor, partial curve, poor fit]",
CC1CCCC(C)N1C(=O)COC(=O)c1ccco1 (centres undefined),,inactive: 13.3% [at 57.1 µM]
O=C(Nc1ccc(Cl)c([N+](=O)[O-])c1)c1ccc(NCCCN2CCOCC2)c([N+](=O)[O-])c1,,inactive: -23.9%
COc1cc2c(cc1OC)C(CSc1ccccc1C(=O)O)=NC(C)(C)C2,,inactive: -58.9%
CC(/C=N/n1c(-c2n[nH]c3c2CCC3)n[nH]c1=S)=C\c1ccco1,"inconclusive: 12.6 µM [inhibitor, partial curve]",
COc1cccc(-c2csc(N3CCN(C(=S)Nc4cccc(Cl)c4)CC3)n2)c1,,inactive: -12%
CCOc1ccccc1CN1CCNC(=O)C1CC(=O)NC1CCCCCC1 (centres undefined),"inconclusive: 35.5 µM [inhibitor, partial curve]",
CCOC(=O)c1ccc(NC(=S)NN)cc1,"inconclusive: 50.1 µM [inhibitor, partial curve]",
CC1=C(c2ccc(C)cc2)S(=O)(=O)N(Cc2ccc(C(=O)NCc3ccccc3)cc2)C1=O,,inactive: 21.2% [at 57.1 µM]
O=C(Nc1nnc(C2=COCCO2)o1)c1ccc([N+](=O)[O-])s1,"inconclusive: 56.2 µM [inhibitor, partial curve]",
COc1ccc(/C=C/C(=O)NC(=S)Nc2ccc(S(=O)(=O)Nc3cc(C)on3)cc2)cc1,"inconclusive: 50.1 µM [inhibitor, partial curve]",
CC(C)CCCCCCNC(=S)Nc1ccc(S(=O)(=O)N2CCOCC2)cc1,,inactive: -16.8%
O=C(NC(=S)NCCc1ccccc1)c1ccccc1,"inconclusive: 22.4 µM [inhibitor, partial curve]",
CCCC(=O)n1nc(-c2ccccc2)nc1SC,,inactive: -3.52% [at 57.1 µM]
CCCNC(=O)C1(CC2CC(c3ccccc3)=NO2)CCNCC1 (centres undefined),"inconclusive: 10 µM [inhibitor, partial curve]",
CN1CCN(c2cc(=O)n(-c3ccc(Cl)cc3)c(=O)[nH]2)CC1,"inconclusive: 79.4 µM [inhibitor, single point]",
O=C(Nc1ccc(Cl)cc1)N1CCC(CO)(Cc2ccccc2)CC1,,inactive: -2.47% [at 57.1 µM]
Cc1ccc(-c2noc(C(C)NC(=O)c3ccco3)n2)cc1 (centres undefined),,inactive: 27.1%
CN1CCN(C2CCN(Cc3ccc(O)c4ncccc34)CC2)CC1,"inconclusive: 28.2 µM [inhibitor, full curve]",
CC12CCC(C(=O)N(CSC(=S)N/N=C\c3ccccc3)C1=O)C2(C)C (centres undefined),"inconclusive: 6.31 µM [inhibitor, full curve]",
CCCCC1(Br)C(=O)N(c2ccccc2)N(c2ccccc2)C1=O,active: 28.2 µM,
Cc1ccc(C(=O)NNC(=S)Nc2cccc3ccccc23)s1,"inconclusive: 15.8 µM [inhibitor, partial curve, poor fit]",
Cc1cccc(C)c1NC(=O)COC(=O)c1cccc2c1C(=O)c1ccccc1C2=O,,inactive: -22.2%

Structure (SMILES),Potency,"activity change, negative = inhibition"
COc1ccc(-c2nc(CN3CCN(C(=O)c4ccco4)CC3)c(C)o2)c(OC)c1C,"inconclusive: 22.4 µM [inhibitor, full curve]",
Cc1ccc2nc(-c3ccc(N4C(=O)CC(N5CCN(CCO)CC5)C4=O)cc3)sc2c1 (centres undefined),,inactive: -20.1%
Cc1cc(C2(c3ccc(O)c(C)c3)C(=O)Nc3ccccc32)ccc1O,,inactive: 21.2% [at 57.1 µM]
CC[n+]1c(S(=O)(=O)[O-])ccc2ccc(C)cc21,,inactive: 37.4% [at 57.1 µM]
CN(CC(=O)Nc1cccc(F)c1)C(=O)c1cc(-c2ccco2)nc2ccccc12,"inconclusive: 3.55 µM [inhibitor, full curve, poor fit]",
O=C1CC(c2ccccc2)n2nc(NC(=O)c3ccccn3)nc2N1 (centres undefined),,inactive: 0.669%
C=CCOc1ccc(C2/C(=C(/O)c3ccc4c(c3)CC(C)O4)C(=O)C(=O)N2CCCN2CCOCC2)cc1 (centres undefined),"inconclusive: 20 µM [inhibitor, full curve]",
O=C1CSC2(C(=O)N(Cc3ccccc3F)c3ccccc32)N1c1cccc(C(F)(F)F)c1 (centres undefined),,inactive: 42.4%
CN1C(=O)CCC1(O)c1ccccc1 (centres undefined),"inconclusive: 25.1 µM [inhibitor, full curve]",
CCN(CCS(=O)(=O)c1ccc(Br)cc1)Cc1nc2ccccc2c(=O)[nH]1,"inconclusive: 39.8 µM [inhibitor, partial curve, poor fit]",
CC(=NNC(=S)SCc1ccccc1)c1ccccn1,"inconclusive: 1.58 µM [inhibitor, full curve, poor fit]",
Cc1[nH]n(-c2ccccc2)c(=O)c1C(c1ccccc1[N+](=O)[O-])C(C#N)C#N (centres undefined),"inconclusive: 12.6 µM [inhibitor, partial curve, poor fit]",
CCc1[nH]nc2c1C(c1ccc(Br)s1)C(C#N)=C(N)O2 (centres undefined),"inconclusive: 28.2 µM [inhibitor, single point]",
Cc1ccc(C2CC(=O)N3CN(c4ccc(Br)cc4)CSC3=C2C#N)o1 (centres undefined),"inconclusive: 17.8 µM [inhibitor, full curve]",
CN(Cc1ccccc1)C(=O)[C@H]1CCC(=O)N1Cc1ccco1,"inconclusive: 70.8 µM [inhibitor, single point]",
Cc1oc(-c2ccc3c(c2)OCCO3)cc1C(=O)O,,inactive: -13.2%
CCc1cc(-c2n[nH]c(C)c2-c2ccccc2Cl)c(O)cc1OC,,inactive: 13.7%
NC(=O)CSc1oc(-c2ccco2)nc1S(=O)(=O)c1ccccc1,active: 39.8 µM,
NC(=O)CSc1nnc(-c2cccs2)n1Cc1ccco1,"inconclusive: 89.1 µM [inhibitor, single point]",
O=C(N/N=C\c1ccc(-c2ccccc2[N+](=O)[O-])o1)C1COc2cc3ccccc3cc2O1 (centres undefined),,inactive: -8.43% [at 57.1 µM]
COC(=O)CCC(=O)OC1(C)C(=O)C=C2C=C(C3CC3)N(C(CO)CO)C=C2C1=O (centres undefined),,inactive: -9.96% [at 57.1 µM]
Cc1ccc(-c2nc3ccccc3o2)cc1NC(=S)NC(=O)c1cccs1,"inconclusive: 70.8 µM [inhibitor, partial curve]",
Cc1ccc(-n2c(C)nnc2SCC(=O)N2CCOCC2)cc1,"inconclusive: 89.1 µM [inhibitor, single point]",
C=CCn1c(=S)[nH]c2sc3c(c2c1=O)CCCC3,"inconclusive: 3.98 µM [inhibitor, full curve]",
COc1cc(O)c(CC=C(C)C)c(O)c1C(=O)CCc1ccc(O)cc1,,inactive: 4.34%

Structure (SMILES),Potency,"activity change, negative = inhibition"
Cc1cc(C)cc(NS(=O)(=O)c2ccc(NC(=S)NC(=O)c3ccc(Br)o3)cc2)c1,,inactive: 2.15% [at 57.1 µM]
Cc1noc(C)c1COC(=O)c1ccc2c(c1)OCO2,"inconclusive: 70.8 µM [inhibitor, single point]",
C=CCOc1ccccc1CNc1ccc2c(c1)OCCO2,,inactive: 12% [at 57.1 µM]
CCc1cccc(C)c1NC(=O)c1ccc(CN2CCc3ccccc3C2)cc1,,inactive: 8.19%
COc1ccc(CNC(=O)CN(C(=O)c2ccc(CN3CCOCC3)o2)C2CCCC2)cc1,"inconclusive: 28.2 µM [inhibitor, partial curve, poor fit]",
Cc1ccc(-n2c(N)c(C(N)=O)sc2=S)c(C)c1,,inactive: -30.1%
CC(C)CC(=O)NC(=S)NNC(=O)c1ccc([N+](=O)[O-])cc1,"inconclusive: 35.5 µM [inhibitor, partial curve]",
O=S(=O)(c1ccccc1)c1nc(-c2ccccc2)oc1N1CCOCC1,"inconclusive: 17.8 µM [inhibitor, partial curve]",
CC(C)(C)c1nc(S(=O)(=O)c2ccc(Cl)cc2)c(N2CCOCC2)o1,"inconclusive: 39.8 µM [inhibitor, single point]",
N#C/C(=C\c1coc2ccccc2c1=O)C(N)=S,,inactive: -24.9% [at 57.1 µM]
Cc1onc(-c2c(Cl)cccc2Cl)c1C(=O)NC1CCCCC1,"inconclusive: 89.1 µM [inhibitor, single point]",
COC(=O)Cc1nnc(SCC(=O)Nc2ccccc2)c2ccccc12,active: 50.1 µM,
CCOC(=O)c1cc(CC)sc1/N=C/C1C(=O)CC(C)(C)CC1=O,"inconclusive: 89.1 µM [inhibitor, single point]",
Fc1ccc(NC(=S)Nc2nccs2)cc1,active: 7.94 µM,
CC(C)Cn1c(/C=C/c2ccco2)nc2ccccc21,,inactive: -15.8%
Cc1ccc(C2CC2C(=O)NNC(=S)Nc2cccc(C)c2)cc1 (centres undefined),"inconclusive: 10 µM [inhibitor, partial curve, poor fit]",
O=C(CCC(=O)N1CCN(c2ccccn2)CC1)c1ccc(Cl)s1,"inconclusive: 56.2 µM [inhibitor, partial curve, poor fit]",
Oc1ccc(/C=N/Nc2ccc3ccccc3c2)c(O)c1,,inactive: 10.6% [at 57.1 µM]
O=C(O)Cn1cc(C(=O)c2ccco2)c2ccccc21,"inconclusive: 44.7 µM [inhibitor, partial curve, poor fit]",
COc1ccc(Cn2nnnc2C(c2cc3cccc(C)c3[nH]c2=O)N2CCOCC2)cc1 (centres undefined),"inconclusive: 22.4 µM [inhibitor, partial curve, poor fit]",
Cn1cnc([N+](=O)[O-])c1Oc1cccc(O)c1,active: 25.1 µM,
O=c1c(Br)c(Br)cnn1-c1ccccc1,"inconclusive: 15.8 µM [inhibitor, partial curve]",
CC(C)Nc1nnc(SCC(=O)N2CCN(C(=O)c3ccco3)CC2)s1,"inconclusive: 35.5 µM [inhibitor, partial curve, poor fit]",
CN(C)/C=N/c1sc2c(c1C(N)=O)CCCC2,"inconclusive: 31.6 µM [inhibitor, single point]",
